# Results taken from patent publication US20160237160A1, “ANTI-TWEAKR ANTIBODIES AND USES THEREOF” (BAYER PHARMA AKTIENGESELLSCHAFT, priority 2013, published 2016).
# B1: TPP-1538: anti-TWEAKR human IgG1; heavy chain SEQ ID NO: 62, light chain SEQ ID NO: 61 (antibody, listed as Homo Sapiens)
# heavy: EVQLLESGGGLVQPGGSLRLSCAASGFTFSPYPMMWVRQAPGKGLEWVSYISPSGGKTHYADSVKGRFTISRDNSKNTLYLQMNSLRAEDTAVYYCARGGDTYFDYFDYWGQGTLVTVSS[human IgG1 constant region not shown]
# light: AQDIQMTQSPATLSASVGDRVTITCRASQSISSYLNWYQQKPGKAPKLLIYAASSLQSGVPSRFSGSGSGTDFTLTISSLQPEDFATYYCQQSYSSPGITFGPGTKVEIKRTVAAPSVFIFPPSDEQLKSGTASVVCLLNNFYPREAKVQWKVDNALQSGNSQESVTEQDSKDSTYSLSSTLTLSKADYEKHKLYACEVTHQGLSSPVTKSFNRGEC
# Columns and labels:
# [1] = test system: Bx-PC3 xenograft (pancreatic cancer); experiment: Xenograft anti-tumor efficacy; type: in vivo, mice; settings: based on measurement of tumor area (*)
# Experimental: Tumor cell lines were cultivated as described in the parts above and 100 μl containing cell line specific numbers of tumor cells inoculated subcutaneously (s.c.) into female athymic nude mice (NMRI nu/nu, 6-8 weeks, 20-25 g, Taconic). Mice were housed under standardized pathogen free conditions and treated according to the animal welfare guidelines.
# After tumor growth to a size of approximately 40 mm^2 mice were randomized into control and treatment groups with a respective group size of n=8-10. Mice were treated with various doses of anti-TWEAKR antibodies diluted in PBS by intravenous injection (i.v.) into the tail vein with a twice per week schedule (q4dx3: applications twice per week, three applications in total; q4dx8: applications twice per week, eight applications in total). […]
# Tumor growth was monitored 2-3 times per week by caliper measurement (length×width in mm) as well as body weight (in g). […]
# 786-O cells = experiment: Internalization of labeled antibodies (InCell Analyzer); type: cell-based, human
# Experimental: (§1) The antibodies were conjugated in the presence of a twofold molar excess of CypHer 5E mono NHS ester (batch 357392, GE Healthcare) at pH 8.3. […] These labeled antibodies were used in the following internalization assays. Prior to treatment cells (2×10^4/well) were seeded in 100 μl medium in a 96-MTP (fat, black, clear bottom No 4308776, Fa. Applied Biosystems). […] The identical treatment was carried out with the isotope control antibody (negative control). The incubation time was chosen to be 0, 0.5 h, 1 h, 2 h, 3 h, 6 h and 24 h. The fluorescence measurement was performed with the InCellAnalyzer 1000 (Fa. GE Healthcare). Granule counts per cell and total fluorescence intensity were measured in a kinetic fashion.
# HT-29 cells = experiment: as above; type: cell-based, human
# Experimental: as §1
# [2] = molecular target: T1, TWEAKR protein (TPP-2305) (Homo sapiens, UniProt Q9NP84); experiment: Biacore monovalent KD with TWEAKR protein; settings: first order 1:1 binding model
# T1 construct: TPP-2305; hTNFRSF12Aaa28-80; Human; 30R-AT080; 168; purchased Fitzgerald Inc 30R-AT080
# Experimental: Binding affinities of anti-TWEAKR antibodies were determined by surface plasmon resonance analysis on a Biacore T100 instrument (GE Healthcare Biacore, Inc.). Antibodies were immobilized onto a CM5 sensor chip through an indirect capturing reagent, anti-human IgG(Fc). Reagents from the “Human Antibody Capture Kit” (BR-1008-39, GE Healthcare Biacore, Inc.) were used as described by the manufacturer. Anti-TWEAKR antibodies were injected at a concentration of 10 μg/ml at 10 μl/min for 10 sec.
# Sensorgrams were generated after in-line reference cell correction followed by buffer sample subtraction. The dissociation equilibrium constant (KD) was calculated based on the ratio of association (kon) and dissociation rated (koff) constants, obtained by fitting sensorgrams with a first order 1:1 binding model.
# A375 xenografts = experiment: Cytokines in serum/plasma of xenograft bearing mice (Luminex); type: in vivo; settings: 10 mg/kg
# Source text: To investigate, whether the observed cytokine secretion is also of relevance in xenograft tumors in mice, human and murine cytokines in serum/plasma from tumor bearing (A375, WiDr) as well as tumor free mice were investigated. 5×10^6 A375 cells in Matrigel/PBS (1:1) or 5×10^6 WiDr cells in Matrigel/Medium (1:1) were subcutaneously inoculated in immunodeficient female NMRI nude mice. Parallel to A375-bearing mice, non-tumor mice were investigated. Treatment started 7d after inoculation with established tumors of about 40 mm^2. […] Mice were then sacrificed at given time-points (0, 6 h, 24 h for A375-bearing mice and 0, 7 h, 24 h, 72 h, 168 h, 240 h for WiDr-bearing mice) to harvest serum/plasma samples. Blood was collected after decapitation and serum was prepared by 30 minutes clotting with subsequent centrifugation at 1000×g.
# Cytokines were quantified using Luminex® bead immunoassays. Human cytokines were determined with Human Cytokine Magnetic 25-plex panel (Invitrogen®, Cat-No. LHC0009M), comprising IL-1β, IL-1RA, IL-2, IL-2R, IL-4, IL-5, IL-6, IL-7, IL-8, IL-10, IL-12 (p40), IL-13, IL-15, IL-17, TNF-α, IFN-α, IFN-γ, GM-CSF, MIP-1α, MIP-1β, IP-10, MIG, Eotaxin, RANTES, and MCP-1). Murine cytokines were determined with Mouse Cytokine Magnetic 20-plex panel (Invitrogen®, Cat-No. LHC0006M) comprising FGF basic, GM-CSF, IFN-γ, IL-1α, IL-1β, IL-2, IL-4, IL-5, IL-6, IL-10, IL-13, IL-12 (p40/p70), IL-17, IP-10, KC, MCP-1, MIG, MIP-1α, TNF-α and VEGF). The assays were conducted according to the manufacturer's instructions and measured by the Luminex reader Bio-Plex 200 (Bio-Rad GmbH). Cytokine concentrations were interpolated from standard curves, as part of the assay procedure, by the operating software Bio-Plex Manger (Bio-Rad GmbH).
molecule,measurement,setting,value
B1,Final T/C,[1],0.54*
same,internalization (granule counts per cell),786-O cells,highly specific and significant internalization; also recorded: Rapid internalization
same,internalization,HT-29 cells,highly specific and significant internalization
same,ka,[2],4.2e+06 M⁻¹ s⁻¹
same,kd,[2],0.11 s⁻¹
same,levels of further human cytokines,A375 xenografts; A375 tumor bearing mice,"increased levels of human MCP-1, IP-10 and IL-1RA were observed"
same,human IL-8 release,"A375 xenografts; A375 tumor bearing mice, 6 h after treatment",human IL-8 is released
same,murine cytokines including the murine IL-8 analogue KC,A375 xenografts; plasma of tumor bearing and tumor free mice,no increase of murine cytokines

# Entries after “also recorded” stand apart in the source; their conditions may differ. Marks after values point to notes of the source that are not given here.
